# Data: PubChem BioAssay (NCATS)
# Inconclusive results are not listed. Calls follow the shape of the dose curve; as a rule, active = well fitted cell-killing curve with a large enough effect; inconclusive = small, poorly fitted or top-dose-only effect; inactive = no such curve, though single readings can be large or run the other way. Some structures have more than one record in an assay (separate samples or runs), and their calls can disagree. Not every entry of the source has a single result; some have several. They are shown here; other results are not. The source may hold further records. Values that stand side by side are repeated measurements (runs, samples, wells, individuals or studies). What stands in brackets tells the records apart. Letters count within one entry.
# Assay: qHTS of pediatric cancer cell lines to identify multiple opportunities for drug repurposing: Primary screen for MG 63 (6-TG R) cells (AID 1347105); also: nearly all actives have a fitted effect of over 50% in size
# Conditions: MG 63 (6-TG R) viability, CellTiter-Glo, 48 h; series mostly up to 46 µM
# Procedure, shortened: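 Plated cells (500-1,000 per well, growth media) were allowed to settle for 5 hours, treated with compound dilutions for 48 hours, then lysed with CellTiter-Glo for 15 min at room temperature before luminescence reading.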
# Potency is read from the fitted curve at half-maximal effect.
row,Structure (SMILES),Potency
1,CCOC(=O)[C@H](CCc1ccccc1)N[C@H]1CS[C@H](c2cccs2)CN(CC(=O)O)C1=O,active: 4.69 µM [sample A] and inactive [sample B]
2,COc1cc2c(Nc3ccc(Br)cc3F)ncnc2cc1OCC1CCN(C)CC1,active: 18.7 µM [sample A] and inactive [sample B]
3,Cc1c(-c2ccc(O)cc2)n(Cc2ccc(OCCN3CCCCCC3)cc2)c2ccc(O)cc12,inactive [sample A] and active: 26.6 µM [sample B]
4,Cc1nnc(NS(=O)(=O)c2ccc(N)cc2)s1,inactive [sample A] and active: 4.69 µM [sample B]
